Test results: PubChem BioAssay AID1347165 (National Center for Advancing Translational Sciences (NCATS), 2019)
“And” between values parts separate entries of the source, which are not always exact repeats. Identical values can stand only once. Out of some 220,000 compounds screened, about 5,700 (2.6%) were called active. The inconclusive results got no clear call from the source; some entries with a clear call stand among them for comparison. Calls follow the shape of the dose curve; as a rule, active = well fitted inhibition curve with a large enough effect; inconclusive = small, poorly fitted or top-dose-only effect; inactive = no such curve, though single readings can be large or run the other way. A potency beside an inconclusive call is a rough fit, not a confirmed value.

molecular target: Lysine-specific demethylase 5B (Homo sapiens) (UniProt Q9UGL1); assay: Primary screen for KDM5B Histone Demethylases FDH-coupled qHTS; conditions: FDH-coupled NADH fluorescence (FDH is formaldehyde dehydrogenase); activity change, negative = inhibition: at 57.7 µM (top of the series) unless noted; also: nearly all actives have a fitted effect of over 70% in size; as to activity change, negative = inhibition: 0% is about no effect
Chain of UniProt Q9UGL1 (Q9UGL1 whole entry, looked up): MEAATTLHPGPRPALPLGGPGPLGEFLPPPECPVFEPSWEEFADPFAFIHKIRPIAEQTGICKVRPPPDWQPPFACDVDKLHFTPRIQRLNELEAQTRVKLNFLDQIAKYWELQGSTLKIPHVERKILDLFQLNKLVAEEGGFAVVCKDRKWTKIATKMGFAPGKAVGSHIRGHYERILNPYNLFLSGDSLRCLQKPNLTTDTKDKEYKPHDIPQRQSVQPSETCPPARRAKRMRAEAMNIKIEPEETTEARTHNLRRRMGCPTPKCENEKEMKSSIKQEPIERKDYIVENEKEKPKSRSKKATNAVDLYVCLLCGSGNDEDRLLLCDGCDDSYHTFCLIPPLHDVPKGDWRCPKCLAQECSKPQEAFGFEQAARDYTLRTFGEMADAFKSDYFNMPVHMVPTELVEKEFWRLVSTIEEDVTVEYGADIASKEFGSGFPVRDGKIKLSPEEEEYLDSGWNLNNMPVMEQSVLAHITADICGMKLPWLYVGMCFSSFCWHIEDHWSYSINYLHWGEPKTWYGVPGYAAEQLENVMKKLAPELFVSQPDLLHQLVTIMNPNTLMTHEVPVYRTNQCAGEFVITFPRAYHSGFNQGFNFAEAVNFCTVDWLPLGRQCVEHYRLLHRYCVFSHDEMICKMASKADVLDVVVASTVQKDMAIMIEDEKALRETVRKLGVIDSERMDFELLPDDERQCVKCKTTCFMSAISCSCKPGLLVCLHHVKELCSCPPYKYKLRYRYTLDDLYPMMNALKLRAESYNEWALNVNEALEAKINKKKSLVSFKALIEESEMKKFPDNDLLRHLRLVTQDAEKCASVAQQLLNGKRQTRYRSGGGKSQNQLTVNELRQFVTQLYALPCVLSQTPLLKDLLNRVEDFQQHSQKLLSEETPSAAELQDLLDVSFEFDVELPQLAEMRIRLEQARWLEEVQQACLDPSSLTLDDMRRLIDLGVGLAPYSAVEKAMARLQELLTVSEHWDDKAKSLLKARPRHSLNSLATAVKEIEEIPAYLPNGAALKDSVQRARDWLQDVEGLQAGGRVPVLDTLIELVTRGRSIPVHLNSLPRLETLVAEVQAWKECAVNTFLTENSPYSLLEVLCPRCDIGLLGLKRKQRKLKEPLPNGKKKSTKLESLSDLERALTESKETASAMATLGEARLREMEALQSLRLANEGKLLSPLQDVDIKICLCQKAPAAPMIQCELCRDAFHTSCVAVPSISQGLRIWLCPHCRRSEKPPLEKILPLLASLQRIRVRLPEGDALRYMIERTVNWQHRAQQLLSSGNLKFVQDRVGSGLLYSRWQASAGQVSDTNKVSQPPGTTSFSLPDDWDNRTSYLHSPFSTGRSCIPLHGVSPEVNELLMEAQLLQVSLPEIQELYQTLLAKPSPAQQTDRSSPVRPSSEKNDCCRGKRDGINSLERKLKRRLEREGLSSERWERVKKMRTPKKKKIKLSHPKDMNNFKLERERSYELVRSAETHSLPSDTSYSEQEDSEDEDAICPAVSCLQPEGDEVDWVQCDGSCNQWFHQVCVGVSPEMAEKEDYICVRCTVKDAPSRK
Procedure, shortened: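 Compound dilutions met 200 nM (final) KDM5BΔAP for 10 min at room temperature before substrate addition. The substrate mix held 12.5 µM H3K4me3 with cofactors 25 µM α-ketoglutarate and 50 µM Fe²⁺. NADH signal gain over 30 min defined activity.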
Potency is read from the fitted curve at half-maximal effect; tags tell the direction and shape of the fitted curve.

SMILES | Potency | activity change, negative = inhibition
CCOC(=O)C(NC(=O)c1cc(F)c(F)cc1Cl)C(=O)OCC | inactive | 
CCOC(=O)C1CCCN(C(=O)c2ccc3nccn3c2)C1 (stereo not given) | inactive | 
O=C(c1ccco1)N1N=C(c2ccc(Br)cc2)CC1c1ccc2nccnc2c1 (stereo not given) | inactive | 
Cc1nn(-c2ccccc2)c(C)c1[C@@H]1C=C[C@@H](NC(=O)c2ccc(N(C)C)cc2)C1 | inconclusive: 28.2 µM [inhibitor, single point] | 
COc1ccc(-c2nn3c(C(C)(C)C)nnc3s2)cc1OC | inconclusive: 39.8 µM [inhibitor, single point] | 
Cc1cccc(OCCN2CCC(CO)CC2)c1 | inactive | 
O=C(NC1CC1)c1cccn2nccc12 | active: 35.5 µM | 
CCCCN(Cc1cc2ccccc2[nH]c1=O)C(=O)c1ccc(OC)cc1 | inactive | 
COc1ccc(C(=O)Nc2cnc3ccccn3c2=O)cc1 | inconclusive: 28.2 µM [inhibitor, partial curve, poor fit] and inconclusive: 39.8 µM [inhibitor, single point] | 
COc1ccc(CCNC(=O)CCCn2c(=O)c3ccccc3n(CC(=O)Nc3cccc(C)c3)c2=O)cc1OC | inconclusive: 25.1 µM [inhibitor, partial curve, poor fit] | 
CCOC(=O)c1c(NC(=O)c2ccc(S(=O)(=O)N3CCC(C)CC3)cc2)sc2c1CCN(C(C)C)C2 | inconclusive: 35.5 µM [inhibitor, partial curve, poor fit] | 
CCc1ccccc1Nc1nn2c(=O)c3ccc(C(=O)NC4CCC(C)CC4)cc3nc2s1 (stereo not given) | inconclusive: 31.6 µM [inhibitor, partial curve, poor fit] | 
Cc1oc(-c2ccccc2)nc1Cn1c(SCc2cccc(C(F)(F)F)c2)nc2cccnc21 | inconclusive: 5.62 µM [inhibitor, full curve, poor fit] | 
CCCCNC(=S)NN=C1CCCCCC1 | inactive | 
Cc1ccc2[nH]c(CCCn3cc(-c4nccn4C)nn3)nc2c1C | inconclusive: 22.4 µM [inhibitor, partial curve, poor fit] | 
O=c1cc(CCl)c2c(ccc3ccccc32)o1 | inconclusive: 20 µM [inhibitor, partial curve, poor fit] | 
CCCNc1nc(Nc2ccc(C)cc2)c2cnn(C)c2n1 | inactive | 
CCOc1ccc(-c2c(C)nn3c(C)c(C(=O)NCc4cccc(OC)c4)cnc23)cc1OCC |  | inconclusive: -32.4% [inhibitor]
CC(C)(C)C(=O)Nc1ccc(-c2nc3ccccc3s2)cc1 | inactive | 
CCc1ccc(CN2C(=O)c3ccccc3C2C(=O)NC2CCCCCC2)cc1 (stereo not given) |  | inconclusive: -31.7% [inhibitor]
CCc1[nH]nc(C(=O)N2C[C@@H](CN3CCCCCC3)[C@@H](CO)C2)c1C | inconclusive: 14.1 µM [inhibitor, partial curve] | 
O=C(c1ccc(N2CCOCC2)nc1)N1CCCC(c2ccccc2)CC1 (stereo not given) | inconclusive: 28.2 µM [inhibitor, partial curve, poor fit] | 
CC1(C(=O)Nc2cccc3ncccc23)Cc2ccccc2C(=O)O1 (stereo not given) | inactive | 
CN1CCCN(C(=O)c2cc3cc(Cl)ccc3oc2=O)CC1 | inconclusive: 39.8 µM [inhibitor, single point] | 

SMILES | Potency | activity change, negative = inhibition
COCCN1C(=O)c2cccn2CC1CNC(=O)c1ccc(OC)c(OC)c1 (stereo not given) | inactive | 
CC(C)NC[C@@H](O)c1ccc(NS(C)(=O)=O)cc1 | inactive | 
COc1ccc(-c2cn(C)c(=O)n3cc(COc4ccc(Cl)cc4)nc23)cn1 | inconclusive: 28.2 µM [inhibitor, single point] | 
COCCCNC(=O)c1cc(-c2cccs2)nc2ccccc12 | inconclusive: 31.6 µM [inhibitor, partial curve, poor fit] | 
O=C(O)c1ccc(-c2nnc3ccc(NC(=O)C4CCC4)cn23)cc1 | active: 31.6 µM | 
COc1ccc(C2=NOC3(CCN(Cc4ccc(N(C)C)cc4)C3)C2)cc1 (stereo not given) | inconclusive: 17.8 µM [inhibitor, partial curve, poor fit] | 
Cc1cccc(OCCn2c(CN3CCOCC3)nc3scc(-c4cccs4)c3c2=O)c1 | inconclusive: 25.1 µM [inhibitor, partial curve, poor fit] | 
COc1ccc2cc(CNc3ccc(C)cc3)c(=O)n(CC(=O)Nc3ccc(C)cc3C)c2c1 | inconclusive: 10 µM [inhibitor, partial curve, poor fit] | 
CCc1ccc(NC(=O)CSc2nc3n[nH]c(C)c3c(=N)n2-c2ccc(C)cc2)cc1 | inconclusive: 2 µM [inhibitor, full curve, poor fit] | 
COc1cc(C2CC(=O)N3CN(Cc4ccccc4)CSC3=C2C#N)cc(OC)c1OC (stereo not given) | inconclusive: 10 µM [inhibitor, partial curve, poor fit] | 
CCNC(=O)c1oc2ccccc2c1CSc1nnc(C)s1 | inactive | 
Fc1ccc(-c2noc([C@@H]3Cc4nc[nH]c4CN3Cc3cccs3)n2)cc1Cl | inactive | 
Cn1nc(-c2ccccc2F)c2cc(C(=O)NCc3ccc(Cl)cc3)sc21 | inconclusive: 31.6 µM [inhibitor, partial curve, poor fit] | 
COc1cc(CC(=O)NC2CCCC2)cc(OC)c1OC | inactive | 
CSc1ccc(/C=C/c2nc(-c3ccc(F)cc3)cs2)cc1 | inactive | 
COc1ccc(Cn2c3c(c(=O)n2Cc2ccccc2)CCN(C(=O)CCc2cccnc2)C3)cc1 | inactive | 
Cn1c2c(c3cc(F)ccc31)CN(C(=O)Nc1cccc(Cl)c1)CC2 | active: 31.6 µM | 
O=C(NC1CCCC1)C1=Cc2cc(Cl)ccc2OC=C1 | inactive | 
O=C(O)CNC(=O)C1CCOCC1 | inactive | 
Cc1cccc(-n2c(SCC(N)=O)nc3c(c2=O)C2(CCCC2)Cc2ccccc2-3)c1 | inconclusive: 31.6 µM [inhibitor, partial curve, poor fit] | 
O=C(Nc1cccc(C(F)(F)F)c1)c1ccc(C2Nc3ccccc3S(=O)(=O)N2)cc1 (stereo not given) | inconclusive: 25.1 µM [inhibitor, partial curve, poor fit] | 
Cn1cccc1CN[C@H]1[C@H](O)[C@@H](N2CCCC2)[C@@H]2OC[C@H]1O2 | active: 25.1 µM | 
O=C(NCCc1ccccc1)NCC(=O)N1CCc2ccccc21 | inactive | 
C/C(=N/NC(=O)C(C)C)c1cc(C)c(C)cc1C | inactive | 

SMILES | Potency | activity change, negative = inhibition
Cc1cccc(-c2cccc(NC(=O)C3CCCN(C(=O)c4cccnc4)C3)c2)c1 (stereo not given) | inconclusive: 39.8 µM [inhibitor, partial curve, poor fit] | 
COc1ccc(CC(=O)NCCc2sc(-c3ccc(Cl)cc3)nc2C)cc1OC | inconclusive: 35.5 µM [inhibitor, single point] | 
Cc1cc(CNC(=O)C(C)Cn2nc(C)nc2C)c2[nH]c(-c3ccccc3)c(C)c2c1 (stereo not given) | inactive | 
CCc1cc(=O)oc2c(C)c(OCC(=O)NCc3cccnc3)ccc12 | inconclusive: 35.5 µM [inhibitor, single point] | 
COc1cncc(Nc2cnc3ccc(-c4ccc(F)cc4)nn23)c1 | inconclusive: 25.1 µM [inhibitor, single point] | 
COc1cc(-c2nc3ccccn3c2Nc2ccccc2C)ccc1O | inconclusive: 31.6 µM [inhibitor, partial curve, poor fit] | 
O=C(Nc1cccc(C(F)(F)F)c1)N1CCC(CN2CCCCCC2)CC1 | inconclusive: 14.1 µM [inhibitor, partial curve, poor fit] | 
O=C(Nc1ccccc1)c1ccc(CSc2ccc3c(c2)OCCCO3)cc1 | inactive | 
O=C(c1ccc2c(c1)OCO2)N1CCC2(CC1)N=C(c1ccc(Br)cc1)NO2 | inactive | 
Cc1cc2nc3n(c(=O)c2n1CC(=O)Nc1ccc(Cl)cc1F)CCCC3 | inactive | 
COc1ccc(Nc2cc(C(=O)NCCCN(C)Cc3ccccc3)c3ccccc3n2)c(OC)c1 | inconclusive: 31.6 µM [inhibitor, single point] | 
CN1CC2(CCN(Cc3ccc(-c4ccc(Cl)cc4)o3)C2)OC1=O (stereo not given) | inconclusive: 25.1 µM [inhibitor, single point] | 
COc1ccc(-c2nc(CSCC(=O)NC3CCCC3)c(C)o2)cc1OC | inconclusive: 22.4 µM [inhibitor, single point] | 
N#Cc1ccccc1CN1CC[C@@H]2C(=O)NCCCCCCN(Cc3ccncc3)[C@@H]2C1 | inconclusive: 22.4 µM [inhibitor, single point] | 
C=CCN(Cc1cnc(-c2cccc(C)c2)nc1)Cc1ccccn1 | active: 22.4 µM | 
COc1ccc2cc(C(=O)NCc3ccccc3CN3CCCC3)c(C)nc2c1 | inconclusive: 25.1 µM [inhibitor, partial curve, poor fit] | 
FC(F)(F)c1cc(-c2cccc(Br)c2)nc2ncnn12 | inconclusive: 25.1 µM [inhibitor, single point] | 
CC(=O)Nc1ccc(S(=O)(=O)N2CCN3C(=O)CN(C)C(=O)C3C2)cc1 (stereo not given) | inactive | 
COc1ccc(-c2nc(C#N)c(NCCc3ccc(F)cc3)o2)cc1 | inconclusive: 25.1 µM [inhibitor, partial curve, poor fit] | 
CCOC(=O)c1cnc2ccc(OCC)cc2c1N1CCN(c2ccccc2F)CC1 | inconclusive: 31.6 µM [inhibitor, single point] | 
Cc1ccccc1-c1nc(SCC(=O)NCCc2ccc(Cl)cc2)n2[nH]c(=O)cc2n1 | inconclusive: 39.8 µM [inhibitor, single point] | 
CC(=O)Nc1ccc(-c2nc3ccccc3o2)cc1 | inconclusive: 20 µM [inhibitor, partial curve, poor fit] | 
